Measured values as given in the supplement of paper PMC10126150.
Values marked as one replicate rest on one cluster of the flow cell; about a third of the high ones do not repeat.

System: ATP
Assay: switch fluorescence ratio, 500 uM ATP over buffer (Cy3 cluster intensity, sum of 5 cycles each) (fold (ratio)); higher = stronger signal-on switching upon ATP binding; sequences stand for … in TCGTCGGCAGCGTCAGATGTGTATAAGAGACAGTTTTTTTTTTTTTTTTTTTTTTTTT…TC
Conditions: aptamer strand: ATP DNA aptamer (quencher-CACCTGGGGGAGTATTGCGGAGGAAGG + anchor), 100 nM annealed; ATP concentration: 500 uM; one replicate
Procedure, shortened: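 For every switch-domain sequence, the fluorescence ratio is the mean of per-cluster values, each being summed target-cycle Cy3 intensity over summed buffer-cycle Cy3 intensity. Clusters outside 100-1000 RFU were excluded. On a modified Illumina MiSeq flow-cell, the Cy3-labelled switching-strand clusters were annealed to 100 nM quencher-labelled ATP aptamer, imaged in selection buffer and then after 15 min with 500 uM ATP at 22 °C. Five such cycles were run, with NaOH stripping and re-annealing between them.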
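Note: ATP exposure 15 min at 22 °C before imaging.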

GATAAAGGAC showed a switch fluorescence ratio of 1.03.
GTGTGTAATC gave a switch fluorescence ratio of 1.05.
Work on CCAGTACTGT yielded a switch fluorescence ratio of 0.991.
Sequence CGACATATCG has a switch fluorescence ratio of 0.91.
Work on TCGTTGAGCG yielded a switch fluorescence ratio of 0.958.
Work on TAATCGCTCT yielded a switch fluorescence ratio of 1.05.
Sequence AGAGAGTCA has a switch fluorescence ratio of 0.962.
TGTGGATTCT was tested, and the switch fluorescence ratio was 0.981.
TGTAATTTG showed a switch fluorescence ratio of 1.04.
Work on CTACGAAAAT yielded a switch fluorescence ratio of 1.04.
GTTGTTCCCT showed a switch fluorescence ratio of 1.05.
For TCTGTTCGAG, the switch fluorescence ratio was 1.01.
TGCAAGCTGG showed a switch fluorescence ratio of 0.997.
TGTGTGGCTG was tested, and the switch fluorescence ratio was 0.948.
Work on AAAATAAAAT yielded a switch fluorescence ratio of 0.937.
GCCCAGGCAC showed a switch fluorescence ratio of 1.
With GGTTGTCATC the switch fluorescence ratio was 0.978.
With TATATCCAAT the switch fluorescence ratio was 0.984.
In the case of CATTCGGTTC, the switch fluorescence ratio is reported as 1.09.
Work on GATACTGCCC yielded a switch fluorescence ratio of 1.68.
In the case of TCCCCGGCCA, the switch fluorescence ratio is reported as 0.991.
AGAGTTTACA gave a switch fluorescence ratio of 1.01.
CCGCGGTAGG was tested, and the switch fluorescence ratio was 1.07.
In the case of TCCTATATTT, the switch fluorescence ratio is reported as 1.04.
TAGGGCAGGA showed a switch fluorescence ratio of 0.999.
Work on GGTAGGACGT yielded a switch fluorescence ratio of 1.
TCTTCCTTAA gave a switch fluorescence ratio of 1.09.
AGGGACTCGA gave a switch fluorescence ratio of 0.961.
With ATCACTTTTA the switch fluorescence ratio was 0.998.
GCGGCAGGCA gave a switch fluorescence ratio of 0.963.
CAATCCTAGT showed a switch fluorescence ratio of 0.977.
With CCTTTGCGTT the switch fluorescence ratio was 0.997.
Work on TAAGCGACGT yielded a switch fluorescence ratio of 1.01.
CACGGGGTCT showed a switch fluorescence ratio of 1.01.
For AGTAGCAACT, the switch fluorescence ratio was 1.01.
TGTTGCCT was tested, and the switch fluorescence ratio was 1.
For TAGTAGGGAG, the switch fluorescence ratio was 0.988.
AGATCCCATG was tested, and the switch fluorescence ratio was 0.955.
CGATACCTTA gave a switch fluorescence ratio of 1.01.
GGATGGATCT gave a switch fluorescence ratio of 0.977.
CCAAACGAGC showed a switch fluorescence ratio of 0.923.
With GAAAATGTGA the switch fluorescence ratio was 0.956.
For GGTCAATTTT, the switch fluorescence ratio was 1.
With ACCGACTTGA the switch fluorescence ratio was 1.11.
For CGAGTGATAT, the switch fluorescence ratio was 1.46.
In the case of GTTTTATTA, the switch fluorescence ratio is reported as 1.02.
For ACCGGGTTTG, the switch fluorescence ratio was 1.01.
In the case of AGGACGGTTT, the switch fluorescence ratio is reported as 1.
GACTCTATTG showed a switch fluorescence ratio of 0.982.
TGGGGAAGCA was tested, and the switch fluorescence ratio was 1.02.
AAGGTGAGGA gave a switch fluorescence ratio of 1.03.
GCCGGAGATG showed a switch fluorescence ratio of 0.994.
For AGCGAGCTGA, the switch fluorescence ratio was 1.02.
CGATACGGGA gave a switch fluorescence ratio of 1.07.
With TTGGGCGTCT the switch fluorescence ratio was 1.01.
Work on TAGCAAAAGA yielded a switch fluorescence ratio of 1.07.
ATGAACCCAG was tested, and the switch fluorescence ratio was 2.51.
Work on GGTCTGTTCT yielded a switch fluorescence ratio of 0.955.
Work on TCTGTATATT yielded a switch fluorescence ratio of 1.
Work on GCGTATGTGG yielded a switch fluorescence ratio of 1.01.
Work on GGAGGTGTAG yielded a switch fluorescence ratio of 0.994.
In the case of GTCGAGCGGG, the switch fluorescence ratio is reported as 1.04.
GTGTGCCTAC showed a switch fluorescence ratio of 1.01.
For CCACATGGCG, the switch fluorescence ratio was 1.03.
GCAAGTGCCA showed a switch fluorescence ratio of 1.01.
In the case of TGTCTGGGCC, the switch fluorescence ratio is reported as 0.988.
In the case of GGCATTTCGC, the switch fluorescence ratio is reported as 1.05.
Work on AATTCGTTGT yielded a switch fluorescence ratio of 1.06.
AAGATGCGGA showed a switch fluorescence ratio of 0.967.
Sequence TGAGGGTTAG has a switch fluorescence ratio of 1.03.
CCAATTACTG showed a switch fluorescence ratio of 1.07.
Work on ATAGCACAAC yielded a switch fluorescence ratio of 1.55.
For TATGCCTACC, the switch fluorescence ratio was 1.14.
TTAGGGTAT was tested, and the switch fluorescence ratio was 1.04.
In the case of TAGTAAGTTG, the switch fluorescence ratio is reported as 1.07.
Work on AGAGACCCTT yielded a switch fluorescence ratio of 1.05.
GGCTCATTTT showed a switch fluorescence ratio of 1.03.
Work on AATGTGTTT yielded a switch fluorescence ratio of 0.955.
For TACGGCAAT, the switch fluorescence ratio was 2.15.
For TATGTGCTT, the switch fluorescence ratio was 1.01.
With GACTTGGTGA the switch fluorescence ratio was 1.03.
With TCAGACCAGC the switch fluorescence ratio was 1.07.
In the case of ATGAAAGTTT, the switch fluorescence ratio is reported as 1.03.
Sequence CCTAAAGGTC has a switch fluorescence ratio of 1.03.
CAACCACTCG gave a switch fluorescence ratio of 1.03.
Sequence AAATATAGAG has a switch fluorescence ratio of 1.03.
AGATGGTGT showed a switch fluorescence ratio of 1.01.
CCTGCTAAAG was tested, and the switch fluorescence ratio was 1.08.
AATGTTTATG was tested, and the switch fluorescence ratio was 0.991.
For TGCACGAAGG, the switch fluorescence ratio was 0.968.
ATTCGAGCAG showed a switch fluorescence ratio of 1.04.
In the case of CGTCGCACGG, the switch fluorescence ratio is reported as 1.07.
GCCTCTGAGC was tested, and the switch fluorescence ratio was 1.
For TGTAACTCAA, the switch fluorescence ratio was 1.07.
CTAATAGGTT gave a switch fluorescence ratio of 1.07.
CATATGCTCT gave a switch fluorescence ratio of 0.987.
TCCAGAATGG gave a switch fluorescence ratio of 1.03.
Sequence ATTAGATAGG has a switch fluorescence ratio of 0.994.
AGCCGTGGGC was tested, and the switch fluorescence ratio was 0.98.
Work on TAGGCTTAAG yielded a switch fluorescence ratio of 1.02.
For GAGACACATT, the switch fluorescence ratio was 1.01.
CCTTTAGCGT gave a switch fluorescence ratio of 1.25.
TCTGAGAAGG showed a switch fluorescence ratio of 1.02.
In the case of TTTGCCGAAT, the switch fluorescence ratio is reported as 1.05.
Work on TAAGTCAAAG yielded a switch fluorescence ratio of 0.981.
With CCCGAACGTA the switch fluorescence ratio was 1.29.
For GACGGAGATA, the switch fluorescence ratio was 1.09.
TGTGTACGGG gave a switch fluorescence ratio of 1.
ACCCTGGTAC was tested, and the switch fluorescence ratio was 1.03.
AGCCAGTACG was tested, and the switch fluorescence ratio was 1.07.
Sequence GAACCTTGTT has a switch fluorescence ratio of 1.01.
GAGCTATACC was tested, and the switch fluorescence ratio was 1.55.
CATGTGCGGC showed a switch fluorescence ratio of 1.
Work on TCCTGCGGGA yielded a switch fluorescence ratio of 4.09.
TCAGCATAG gave a switch fluorescence ratio of 1.15.
Work on CCATATTACT yielded a switch fluorescence ratio of 1.08.
TCGGGTTGAA gave a switch fluorescence ratio of 1.
In the case of AACTGCTGC, the switch fluorescence ratio is reported as 1.05.
In the case of CAATAGCCGC, the switch fluorescence ratio is reported as 1.01.
For AAATAAGCGT, the switch fluorescence ratio was 1.03.
Sequence TGAAAGAATG has a switch fluorescence ratio of 0.976.
In the case of GTATTTGTTT, the switch fluorescence ratio is reported as 1.04.
For AGGTGGCACT, the switch fluorescence ratio was 0.959.
With CGCCGTCGGA the switch fluorescence ratio was 1.01.
AGGGGAGTCC gave a switch fluorescence ratio of 0.992.
Work on CTAACCTGGG yielded a switch fluorescence ratio of 1.08.
For GTCCCGGG, the switch fluorescence ratio was 1.02.
For CTAGTTACTG, the switch fluorescence ratio was 1.06.
CGCGTCTTAT showed a switch fluorescence ratio of 0.951.
In the case of CCGGGAATAT, the switch fluorescence ratio is reported as 2.42.
Sequence GCTTTGACGG has a switch fluorescence ratio of 0.935.
TACGTCATG was tested, and the switch fluorescence ratio was 1.09.
In the case of TAGGTGCGAT, the switch fluorescence ratio is reported as 1.06.
GTATTACGCC was tested, and the switch fluorescence ratio was 1.02.
CCTTGCTTCT gave a switch fluorescence ratio of 1.11.
Sequence ACGTTAAGTA has a switch fluorescence ratio of 0.992.
Sequence AAACATACAG has a switch fluorescence ratio of 1.19.
With TCCAAAAGCA the switch fluorescence ratio was 1.88.
In the case of GGTTCCGCTC, the switch fluorescence ratio is reported as 2.22.
Work on GTACCCTTTG yielded a switch fluorescence ratio of 1.
In the case of GAAGGAGGTA, the switch fluorescence ratio is reported as 0.949.
Work on CTAGGGCTAG yielded a switch fluorescence ratio of 0.989.
GCATTGGCAG gave a switch fluorescence ratio of 1.02.
AAAGCGTAGG gave a switch fluorescence ratio of 1.06.
CGGCTTGGTA showed a switch fluorescence ratio of 0.958.
In the case of GAAAGAGAGA, the switch fluorescence ratio is reported as 1.01.
CGGCGCTCAG gave a switch fluorescence ratio of 0.993.
For TGAGGTATGG, the switch fluorescence ratio was 0.999.
For TACCGCGTTG, the switch fluorescence ratio was 1.04.
CGGTGGGCCA showed a switch fluorescence ratio of 0.997.
TTGTGTGGCT showed a switch fluorescence ratio of 1.02.
For TCGTGACGGG, the switch fluorescence ratio was 1.04.
Sequence CCAGCACTCA has a switch fluorescence ratio of 1.32.
With CGATTCATAT the switch fluorescence ratio was 0.952.
Sequence CAAAGGCACT has a switch fluorescence ratio of 0.998.
Work on AGAGACAAAG yielded a switch fluorescence ratio of 0.982.
GAGAGCCGGT gave a switch fluorescence ratio of 0.943.
AGATTAAACG was tested, and the switch fluorescence ratio was 0.999.
For GCAGTTGTAC, the switch fluorescence ratio was 1.46.
TCTAACGTTA showed a switch fluorescence ratio of 1.08.
In the case of GCCGTTCGGG, the switch fluorescence ratio is reported as 1.05.
Work on ATATAACTCG yielded a switch fluorescence ratio of 0.999.
With GCGGGTAACC the switch fluorescence ratio was 0.989.
In the case of AGTGATTCTG, the switch fluorescence ratio is reported as 0.971.
CACGGCCCTG showed a switch fluorescence ratio of 0.949.
For ACGGGCACGG, the switch fluorescence ratio was 1.09.
ATCGATAAAT gave a switch fluorescence ratio of 0.986.
TTATGCCTGG showed a switch fluorescence ratio of 0.991.
With GACAAGAGGA the switch fluorescence ratio was 1.05.
GAACCTGTGG was tested, and the switch fluorescence ratio was 0.966.
Work on TCCTAAAGGG yielded a switch fluorescence ratio of 1.02.
GAAAGTGCAG gave a switch fluorescence ratio of 0.975.
Sequence CGGTGCGTGT has a switch fluorescence ratio of 0.988.
CTTTGAGAAT gave a switch fluorescence ratio of 1.01.
CATATAACAA showed a switch fluorescence ratio of 1.02.
In the case of CAGAAGTGTT, the switch fluorescence ratio is reported as 1.03.
For ATAGACTAAC, the switch fluorescence ratio was 1.06.
AGATACCGGT was tested, and the switch fluorescence ratio was 0.97.
Work on AGCTCTCCAC yielded a switch fluorescence ratio of 1.14.
With ACGGAAAGCC the switch fluorescence ratio was 1.05.
In the case of TTGTCTTTGC, the switch fluorescence ratio is reported as 1.01.
ACACAATCGT showed a switch fluorescence ratio of 0.995.
GTAAACTGAA gave a switch fluorescence ratio of 1.01.
TAGTTACTGC gave a switch fluorescence ratio of 1.09.
Work on CGGTTAGGTT yielded a switch fluorescence ratio of 0.966.
CTAGCTTGTA gave a switch fluorescence ratio of 1.04.
CCAGTTAAGT was tested, and the switch fluorescence ratio was 0.977.
In the case of GGGTACCATG, the switch fluorescence ratio is reported as 1.02.
Sequence AGAACCACAC has a switch fluorescence ratio of 1.31.
TTATAAATAA was tested, and the switch fluorescence ratio was 1.03.
TCGCTATTTT showed a switch fluorescence ratio of 1.09.
Sequence CGTTGGCACT has a switch fluorescence ratio of 1.03.
Work on GATGGCACTA yielded a switch fluorescence ratio of 1.01.
TAGACGCTC gave a switch fluorescence ratio of 1.05.
Sequence CGTAAGGCCC has a switch fluorescence ratio of 1.47.
Work on AGCATGACTG yielded a switch fluorescence ratio of 1.08.
With CAATGCATAT the switch fluorescence ratio was 1.03.
GTAAGAAAGC showed a switch fluorescence ratio of 0.992.
CTTTTGGTCT gave a switch fluorescence ratio of 0.983.
With TCCACCCGTT the switch fluorescence ratio was 1.26.
